Test results: the supplement of paper PMC3334620
Whole data set: some 33,000 sequences, median “E-score (-0.5 to 0.5)” near -0.035, cut for the highest 2% near 0.35. The list shows a part of the results.

What follows are sequences tested against T1, Pdr3 (UniProt P33200) (assay: PBM E-score (8-mer binding enrichment) (E-score (-0.5 to 0.5)); higher = stronger / more preferred TF binding; most listed sequences are background and not binding sites). Settings: protein concentration: 200 nM; construct: GST-full length.
T1 sequence: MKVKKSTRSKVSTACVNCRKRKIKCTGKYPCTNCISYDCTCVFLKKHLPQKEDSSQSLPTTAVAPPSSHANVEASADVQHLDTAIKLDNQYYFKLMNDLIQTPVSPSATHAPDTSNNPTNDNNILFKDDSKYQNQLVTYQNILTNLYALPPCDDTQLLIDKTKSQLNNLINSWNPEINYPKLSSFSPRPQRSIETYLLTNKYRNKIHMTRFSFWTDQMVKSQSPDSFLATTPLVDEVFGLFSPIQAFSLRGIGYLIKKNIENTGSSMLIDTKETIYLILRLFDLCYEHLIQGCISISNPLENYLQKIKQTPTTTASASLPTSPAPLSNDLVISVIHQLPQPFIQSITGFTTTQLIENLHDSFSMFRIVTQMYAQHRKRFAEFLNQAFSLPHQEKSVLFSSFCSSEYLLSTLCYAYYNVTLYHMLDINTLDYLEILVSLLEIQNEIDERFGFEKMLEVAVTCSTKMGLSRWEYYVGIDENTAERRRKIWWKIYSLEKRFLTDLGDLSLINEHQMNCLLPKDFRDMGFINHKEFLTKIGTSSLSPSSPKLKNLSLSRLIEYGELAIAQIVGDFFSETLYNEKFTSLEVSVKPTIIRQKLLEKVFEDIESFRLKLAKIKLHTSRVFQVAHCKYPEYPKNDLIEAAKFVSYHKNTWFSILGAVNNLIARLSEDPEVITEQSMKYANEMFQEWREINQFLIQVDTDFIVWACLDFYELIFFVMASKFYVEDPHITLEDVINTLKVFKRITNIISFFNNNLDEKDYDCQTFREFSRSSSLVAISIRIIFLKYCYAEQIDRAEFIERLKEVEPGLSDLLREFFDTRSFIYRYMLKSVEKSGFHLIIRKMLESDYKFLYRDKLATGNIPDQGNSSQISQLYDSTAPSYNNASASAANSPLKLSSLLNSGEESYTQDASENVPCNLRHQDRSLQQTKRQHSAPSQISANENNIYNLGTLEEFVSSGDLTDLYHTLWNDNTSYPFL
Summary of the method: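 Masliner-normalised scans of fluorescent anti-GST signal were the basis for scoring. That signal came from GST-tagged yeast transcription factors applied at about 100-200 nM to double-stranded universal all-10-mer Agilent arrays on fresh or once-stripped slides. Each ungapped eight-base word, pooled with its reverse complement, received an E-score from the Universal PBM Analysis Suite.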

Sequence	PBM E-score
GCCAAGCC	-0.0348
AACCTCAC	-0.158
CCAGTCTC	-0.16
CGCGCATC	0.141
ATCTGGGA	-0.26
CAAGGGCG	-0.212
CTCCTTCC	1e-05
ACGCAGAT	0.0761
ATGAATAA	-0.163
GACGGACC	0.33
AGGGAACT	0.0568
GCTATGGA	-0.0537
AGCTAACT	-0.0938
ACAGTATC	-0.21
CAAGATTC	0.142
GAATCAGA	0.117
AGATAGAC	-0.109
ATATATGC	0.11
ACGCTTGG	-0.205
CTGCTTGA	-0.259
GCGTCGGA	0.314
ATAAAAGA	-0.182

Sequence	PBM E-score
GCTCTAAA	-0.226
CCTATTCC	0.107
AGATCGGG	0.0992
TCCTGAAA	-0.0194
AGGTTATC	-0.182
CCGTCCAC	0.233
AGACTGTA	-0.194
ATCACGTC	-0.0604
AATGAAAA	0.0572
AATGGTGG	-0.0586
ACTGTCGG	0.0299
CTACGATA	-0.031
GTGGCGCA	-0.0588
GGGTGACA	0.173
AGTCGGAA	0.414
TCCAGCAA	-0.333
CGGTTTAG	0.0658
AGCAGAAT	0.0669
ACAAAGCC	0.0294
AGGTTCGA	-0.0184
AATGATTG	0.0739
TAAACACA	-0.146

Sequence	PBM E-score
AGGATCCG	0.301
ATGTCAAC	-0.11
CTCCATCA	0.126
GGTGGCAC	0.0222
CTCCTGTC	-0.192
ATAAGGAG	-0.0921
GCCGTTAC	0.23
CAACAAGG	-0.0235
CTGTGCAC	-0.197
AAAAATGA	-0.0876
AATGGGCA	0.0304
CGAAACCG	0.27
CAACTATC	0.0324
GCCACAGA	-0.163
GCAACACC	0.0609
ACGCGCCA	-0.0118
AGTCAAGC	-0.0903
CAAAGGAC	-0.179
ATTTTTAA	0.144
CGATGGTA	-0.0193
TCGCGAGA	0.144
AGCTACGG	0.0905

Sequence	PBM E-score
CCACCCAA	-0.0493
AATAACGG	0.275
GACGATGC	-0.093
AATCCGCA	0.246
AAGGTATC	-0.0275
CTATGGTC	-0.0378
CTGGCGTA	-0.246
AATGTGCT	0.101
TCCGGTCA	0.32
ACGCTTTC	-0.094
CTGGCATC	-0.298
AGGGCCTA	-0.129
GAAACTAA	-0.051
GCTATGAA	-0.0316
AACACAAT	-0.139
ATTGTACG	-0.227
GTCCAGTA	-0.0926
CTGCCCCA	-0.045
ATCGGGTG	0.266
ATACACGC	0.00278
TCCACTAA	-0.0222
ACTCCTAA	-0.163

Sequence	PBM E-score
ATAACATA	0.0584
ACTGCGTA	-0.234
CGCCCGAG	0.243
CTGGGTAA	-0.0947
AAGGGCCA	-0.218
CGCGCAAA	0.175
TGGCTACA	-0.214
CAAACAAA	-0.144
AAGGGAGA	-0.111
CACCTTGC	-0.0258
GCTGCATA	0.0166
GATCATGA	-0.0423
CTCATCAC	-0.191
AGCTTTCA	-0.204
ACCCCGAT	0.251
AATGGCCA	-0.0134
AGCGTCGA	-0.0457
CAAACAGC	-0.0858
GGTTGGAC	-0.0822
CGACGGTC	0.0133
AAGTGCTA	-0.324
